Source: the supplement of paper PMC10681739
± gives the standard deviation of the averaged measurements. In all, about 4,000 sequences were measured (“arbitrary fluorescence units”: median about 830, highest 2% from about 6,500 on). This part holds few or none of the hits.

The sequences below were run against RUNX1 (UniProt Q01196) (assay: RUNX1 binding intensity (PBM fluorescence), RUNX1 alone (arbitrary fluorescence units); higher = stronger binding). Settings: RUNX1 concentration 2 nM; ETS1 concentration 0 nM.
Chain of UniProt Q01196 (Q01196 whole entry): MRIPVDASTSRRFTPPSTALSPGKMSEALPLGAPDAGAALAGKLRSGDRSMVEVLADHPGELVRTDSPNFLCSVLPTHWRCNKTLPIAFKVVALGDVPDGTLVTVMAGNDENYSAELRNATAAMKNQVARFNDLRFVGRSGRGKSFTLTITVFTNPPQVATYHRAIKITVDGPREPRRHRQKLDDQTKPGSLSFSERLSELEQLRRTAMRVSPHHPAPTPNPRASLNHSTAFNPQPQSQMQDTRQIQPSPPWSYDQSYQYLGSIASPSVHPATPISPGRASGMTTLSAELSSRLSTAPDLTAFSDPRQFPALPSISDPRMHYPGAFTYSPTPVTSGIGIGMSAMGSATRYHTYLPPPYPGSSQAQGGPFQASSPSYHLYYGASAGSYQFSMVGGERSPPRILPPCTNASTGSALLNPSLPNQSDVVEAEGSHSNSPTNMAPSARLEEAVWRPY
Description: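 gcPBM on 36-bp genomic-derived probes (partner site mutated) containing one RUNX1 site and no ETS1 site. Recombinant human RUNX1 (2 nM) was incubated alone or with ETS1 (25 nM) and detected by anti-RUNX1 antibody fluorescence. Values are medians over 4 replicate spots (not normalised). The probes sit in constant array flanks that are not printed.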
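Further: Full-length recombinant human RUNX1 bound to double-stranded DNA microarray spots, detected with an Alexa488-labelled secondary antibody after the anti-RUNX1 primary, read as scanned spot fluorescence.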

Point of comparison: GGCAGGAGCTTCAGGCTCAGCCCTGCGGCCTGTGCC, RUNX1 binding intensity 666. Against it:
- CCCATCGCCGCAGCTCAAGTTTGTCTCCTTTTCATC — higher, 1520
- ATCTCACTGTGGTTTTACTTTGCATTTGCTGTACTC — higher, 2390
- CGTTATTTACGGGGCTGGGTTAACGCAGCGGTTCCA — higher, 748
- CTTGCTTAACGCTCCCTGAGGGGTGGTTTGGGTTTT — higher, 866
- GAGGAGGAAAGCGCAAGCGCTGCCCGCAGTGGTAGG — higher, 671
- AGCTTTGCGGGCTGTATCAGTCTCAGCAGCAAGAAG — higher, 828
- CCGCCACCGTAAGCGCCCTCCTAATCCCCGCAGCGC — higher, 1080
- TTCTTAGCAGAGCAAGCTGTTTGCGGGGAAAAAGGG — higher, 721
- TGCTGCTCACCCCGCAGAAAGGAGATGGGACCGGCG — higher, 806
- TTACCTTCATGCTGCCACCAAAGCACCAAACCACCA — higher, 1100
- CCGGTTCCCACAGAGCAGGGGGCTTACGGCGGGGTA — higher, 847
- GCAGCCCAGCTTGCTGCAGACCAAAACCACAAGCAG — higher, 1300
- GCACTCATTGCCTGTCCCCTGTGGTTTAAAGGTTTT — higher, 902
- AGGCCTGCGGCGGCAGAAGGAAAGACAAGGAACTAC — higher, 740
- AGTTGCATACGCGGTATTGGGCAGGCAATGGCAGGG — higher, 738
- GCCCAGCAAGTGGGTACAAAATGAGCCACAAGACCT — higher, 776
- TCCTGCTTCGGCCTCCGCTGCAGCCTCTCCCGCAGA — higher, 831
- AACTCCTGGCCCGAACGGCACAGACCGCACTCCCGC — higher, 1080
- GCCCCTTTTTGCTGGGATGAGCGGTTAGCGGAGGGG — higher, 1100
- TACGCTTCTGCGGCCGCCTAACCCGGGAGCGAAACC — higher, 857
- CTCGGAGAGGAACTACTAGGGTGGTTTCTCCTGAGG — lower, 661
- GACGCAGCATGAGCTGGAGGTGTAGAATGTGGTGCT — higher, 789
- ACTTCTCCGCCCGCAGGCCACTCCCGGCCCCTGTAA — higher, 1740
- TCCATGAAGGGGCAGGGGCCTGCTTGTGGGTTTAAA — higher, 718
- ACAGAGGTGCTACCACAAGGACCGTAAGCAGAGACC — higher, 855
- TGTGCATGTGGTTTTCGGGTATGTGATTGCCTCTTT — higher, 1410
- CCTGCGTCTCCCTCATGAGCTTCTTCGGCCCGCAAC — higher, 1030
- GCAGGACTCCAGGGAGCCCGCGCAGCCGCAAAAAGC — higher, 750
- AGCACCCCAGGCAACCATCGCCTCAGCCCACATATT — higher, 1200
- CCCACCCGTAAATGAGCCAACAGTGGTTTCGCCCCG — higher, 1050
- TGCCCTTCTTTCTGCGGGCCTTTCCGATACTTGAGC — higher, 997
- GAAGCTGCGGTGAAGTCTGAAGTTGCCTGGGCCGGG — higher, 2270
- GTTCTCAGCTTCATGTTCACAGAGAAACCTCAGACA — higher, 791
- CCCTACACCCCACAATCCCCCGCGCCGTTCGGGAGG — higher, 1110
- CGGGTTGAGAACCACAGCCTTCACATACGGCTTTTT — higher, 931
- ATCAAAGAACGGCTATTGCTGTGACACCGCGGGGAC — higher, 701
- GCCGTGCGGTTTCCAGGCCCTACTGCCTGCCATATC — higher, 3120 ± 1000
- CTGGGCTAGGTGGTCAAGTTTCAGGGGAGGGGAGCT — higher, 766
- GCCATGCGCAGGACTCCGCGTTCTCGCGGTAAGTGG — higher, 697
- CTGTGTCCGCGGTGCAAGGGGTCCCGGCGAGGCCAA — higher, 679
- CCAACAGTACCCTGCCTCCCTTAACCACAAGACTGA — higher, 5490
- GAAGAAATGTGGCTATCATCTTGCGTCCTTCACCGA — higher, 726
- ACCAGAACAGCAAATGTTAGTGGTTGAGTTAACGGT — higher, 739
- GTGGAAAGGCAATGTGTCATCTGTGGTTTGGTTTTA — higher, 1040
- CCCAGCCACCTCCCAGAGCAGCTAACCCACAGTCCT — higher, 1060
- AGCACCCCAGATCCTGCACCCCACAACCCAGATCCC — higher, 1110
- GCCCCGGTGGTTTTGACCTCCCGCGAACGTCCCTTT — higher, 883
- ACTCCGCCCCCTCCGCCTGGCGGTTCCACTTCTCGG — higher, 946
- GTAAATAAAGAGGAGGTCCCTATGCGGGGGATGGGG — higher, 908
- ACAACCTCACCGCGCGGCGCCGCCACCGAAAAAGGA — higher, 934
- GAGGAGGCTGTGGTCTGTGTACCCAGGGTGTGCTAA — higher, 913
- GTTTCCACTTGCTGCTGTGCAGCAGTACCACCAAGA — higher, 909
- AGGCAACTCCCACAAACCCCCGTACGCGGAACACTG — higher, 947
- ATGGCGGCCGCAGCAGTGGGCAGTTGAGTTTTCGGG — higher, 729
- CCGGAGGCCGCAGGCCGCTCAGGCTTGCGCTCCCAC — higher, 813 ± 110
- ATCTCAACTAGGACATGTTTTTGTGACCACAAAGGG — higher, 1070
- CTGCCAGACCACACAGTTTGCACTCCCGGGGCGGGC — higher, 996
- CTATATCACCTCCTTTCTCTGACCGCGCTGACTTCG — higher, 1770
- GACACTGCGGTAGCCTCACTATTGCCTGCTTTAGGA — higher, 1200
- TGGCGCTGCGGGCCGGGCGGGGGCCGCGGAGGCTGC — higher, 734
- ACAGCTCACACAGTAAATACAAACCTCAAAAAGCAA — higher, 970
- CCTGTACGGAGGCTACTCTGGTTTCATGTGGTTTCA — higher, 912
- AGTGACGTTTGCGGCAGTAAGGCTTACGTCGGAAAA — higher, 777
- ACAGAGAAGATTCCTATTGTGGGATTCACCACCACC — higher, 786
- CTCATCAGTCAGCCGGCTGGACCGCAGGAGCTCTCC — higher, 900
- TGGTGCCAAAAATCCGCTAGCCACAGAAAAACCGAC — higher, 814
- GCGCCCGAAAGTAAGGCTGGGGTAGGTTGTGGTTTC — higher, 922
- ATACTGCGGCACTGGGTTGGGGTTGCCTGGATGAAC — higher, 768
- AAAAAGCCGTATGTGAAGGCTGTGGTTCTCAACCCG — higher, 754
- CAGCCGGCACCGCGGACAGCCGCCGCTTCAGGTTTC — higher, 751
- TGCAGTTGCCCCCGCACAGCGGAGGTGGGTCGCCTC — higher, 719
- TGTCTCATTTGCTGTAGGTAACAGGCACCACAATAG — higher, 847
- CAGGCCAAAAAGCCACACCTCAGAGGACGTAGTTCG — higher, 764
- GCAGGCGTGCGCTCCCGCTCCAACCCGCGCACTTCG — higher, 883
- TTACGACACTCCCGGCGACGCCCCGCAGCCTTCACC — higher, 941
- AGTCTGGCTCTGACCACAAGGCAGGCAATAGCTCAT — higher, 1870
- TTTACTGAGAGGAGGTGGTTCTTGTGGGTGAAGGTC — higher, 872
- TTACTGCCTGAACTTGGGACCTTTGTAACCACGTCT — higher, 906
- TAAGTGCACGAAACGGCTGTGTGGGTGTCAGTGATT — higher, 712
- TAAATGTCTCCTAAAAGCTCTTTCATAAACCACAGT — higher, 884
- AGTGGATTAGTGGTTGTTGCCAGAGGAGGTGAGTTG — higher, 770
- ACTACCTGCGGGTGGCCACCAGCGGCGGCAGTCGGG — higher, 822
- GAAGCCCAACAGCATGCCGAGTAACCACCCACTGAA — higher, 878
- GCCGATGAGGAGGTGAGGGCCAACCACACTGCTCAG — higher, 870
- CTGAGGCAATTGGCTCCACGATAAAGTGGTTTGGCC — higher, 751
- GGAGCCTGGCTGTGGGTGAGTGCTTGCTGAAGGGGT — lower, 641
- GCTGACCACATTAAACCAGCGCCCACCTCCTCTCAC — higher, 1810
- TTGACCGCAGGAACTCAACCTCCCCTGGAACTCAAC — higher, 2520
- AGCACCAGTGTGGTCTCTGCTTACGGTCCTTATGGT — higher, 882
- TTTTCCGACGTAAGCCTTACTGCCGCAAACGTCACT — higher, 954
- TCTTCCTCCTCGCGGTCGCGGCCGTACGGAGGGTGG — higher, 803
- AGAGGCAGCTTACGGAGACTGCTCTGTGGCCAGTTT — higher, 711
- GAGGCAGGCGCATGTCAGTGTGGTTAGAGCACAGTG — higher, 812
- GTTTGGTGTGGTTGCAGTACACGATGCATAGTGAAG — higher, 870
- AACAGTACTTTCGGGGCAAGTGAGCGCCCACAAGGC — higher, 783
- GGCTCCCTGCCCAACTACCAAGAAAAAGCCACAAAG — higher, 1020
- GCGCAACGAACCGCAGGTACCGTAAGAGCACACTTC — higher, 1020
- CTTCAGCCGCCACCTCCCCGCCCCCGCAGCCCGACA — higher, 1120
- AGCCCACACGGACCACAGCTCCAGGGAGCCGAGCAA — higher, 881
- GGGCATGAACGAAGAGGGCTCCTCCCCACAAGCTCT — higher, 788
- ATAAACATGAAGCTGAGTATGTGACCACAGACATTC — higher, 825
- CTCCGTTAGGAGATACTATGCAACCACGTCCAGCAT — higher, 716
- GACCTGACAACATGCTGGCGCAGTGGGTTGGCCCTG — higher, 755
- TTCTTCCCCCTTCAGGTCGCTGAGTGGTTGAGGCCG — higher, 912
- TCGCAAACCTCAATGTATTTCCATCACAGAAAGAGA — higher, 1240
- CTTTCGCCCTGCCGCGTGCGCTTTGACCGCCCACCC — higher, 1040
- TTCAGCCTCCCGCCGCAAGCTCCCTTCGGCCGCTCC — higher, 1030
- GCCCAGTTCTCGCCTCCGGTCTGCGGCGCGCTCGGG — higher, 844
- TTGGGGCCCCACAGAAAGTCAGTGGAACGTGAAATG — higher, 756
- TGAAAGCCAGGCAAGTGGCTCCCACAATAAGCCAAG — higher, 689
- CCCGGTGCATCGGATCCGACCACACCCTGGGTGGGC — higher, 701
- ACTCGCTCCGGCCGCAGCCCCCTCGGAGGCTGCTAG — higher, 822
- CATGTGCTTACGGCTTGATCTGTGGTTATTCTGGTT — higher, 1300
- CAAACCACCTAACAGTGCACAGACAGCAGCCTGAGC — higher, 766
- TGCCGTATGTGGGTTGAGGGCATGCTGCTTCGCCAT — higher, 758
- TAAAACCACCTCAGTACAAATGAACGTCCTTTTCAA — higher, 844
- AGGCTTACGGCCACGCCCCCTTCCCGCGGTTGCTAG — higher, 757
- TAAGGCAACCACCTCCTCTCAAGACCCTTTCCAGCC — higher, 957
- TCCCCTACCGCTAGTGGAAGAAGATGGCGCAAGGCG — higher, 755
- CAGGCACACATACGGGAGCGGCCTGCGCCGCAAGGC — higher, 735
- TACCTACATGCTGCCACCACCCGAGGGGACCGCAAG — higher, 906
- TGCAATCTTAACCGCTGTGCTTCGGTCGCAGTGGGA — higher, 875
- TACCCAGAAAGGAGGTGGAACCTGCGGTGAGGCCCC — higher, 833
- TATTCAGCAGCAAAGGAGAGAGTCTGTGGTATCTGC — higher, 708
